From PubChem BioAssay AID248 (DTP/NCI, 2004)
Inconclusive results and toxic doses are left out. A number of entries come with more than one value. They are shown here; other results are not. The source may hold further records. Values that stand side by side repeat one measurement across runs, samples, wells, individuals or studies. What stands in brackets tells the records apart. Letters count within one entry.

Tested on: L1210 leukemia ip in BDF1 mice, survival T/C
Test: NCI In Vivo Anticancer Drug Screen. Data for tumor model L1210 Leukemia (intraperitoneal) in B6D2F1 (BDF1) mice
Conditions: endpoint: mean survival time, higher = longer survival

In the case of `O=[N+]([O-])c1cccc(OCCOc2ccccc2)c1`, the T/C (dose: 50.0 mg/kg/injection, schedule: Q01DX009 (ip), vehicle: saline with Tween-80) is reported as 96 % of control and 161 % of control.
For `O=C1C(N2CCOCC2)=C(N2CC2)C(=O)C(N2CCOCC2)=C1N1CC1`, the T/C (dose: 6.0 mg/kg/injection, schedule: Q01DX009 (ip), vehicle: saline) was 119 % of control and 164 % of control.
For `COc1cc2c3c(c4ccc(OC)c(OC)c4c2cc1OC)CN1CCC[C@@H]1C3`, the T/C (dose: 10.0 mg/kg/injection, schedule: Q03DX Z (ip), vehicle: water) was 114 % of control, 116 % of control, 152 % of control, the T/C (dose: 20.0 mg/kg/injection, schedule: Q02DX Z (ip), vehicle: water) was 122 % of control and 155 % of control and the T/C (dose: 20.0 mg/kg/injection, schedule: Q03DX Z (ip), vehicle: water) was 117 % of control and 151 % of control.
For `O=C(CCBr)N1CCN(C(=O)CCBr)CC1`, the T/C (dose: 200.0 mg/kg/injection, schedule: Q04DX003 (ip), vehicle: saline) was 115 % of control and 170 % of control.
In the case of `CC1CC(C)(O)CC(C(O)CC2CC(=O)NC(=O)C2)C1=O` (stereo not given), the T/C (dose: 0.6 mg/kg/injection, schedule: Q01DX Z (ip), vehicle: other) is reported as 118 % of control and 164 % of control.
With `Clc1ccc(NC2=NCCO2)cc1Cl` the T/C (dose: 100.0 mg/kg/injection, schedule: Q04DX003 (ip), vehicle: saline with Tween-80) was 92 % of control and 150 % of control.
With `O=C1C=CC(=O)O1` (tested in a mixture with another compound) the T/C (dose: 200.0 mg/kg/injection, schedule: Q01DX009 (ip), vehicle: saline) was 98 % of control, 124 % of control [sample A] and 111 % of control, 115 % of control [sample B] and 111 % of control, 115 % of control [sample C].
With `O=C[C@@H](CO)O[C@H](C=O)n1cnc2c(=O)[nH]cnc21` the T/C (dose: 55.0 mg/kg/injection, schedule: Q01DX009 (ip), vehicle: saline) was 122 % of control and 153 % of control.
